In the antibiotic and cytotoxicity screens of Wong et al. (2023):
The other results are listed elsewhere or left out.

Assays:
HSkMC = human skeletal muscle cells; test: cytotoxicity call (relative viability < 0.9); settings: 10 µM
HepG2 = test: cytotoxicity call (relative viability < 0.9); settings: 10 µM
S. aureus RN4220 = test: growth inhibition call (relative growth <= 0.2); settings: 50 µM

| SMILES | cytotoxicity call (HSkMC) | cytotoxicity call (HepG2) | growth inhibition call (S. aureus RN4220) |
| --- | --- | --- | --- |
| C[C@H]1CCCCO[C@@H](CN(C)C(=O)Nc2ccc3c(c2)OCO3)[C@@H](C)CN([C@@H](C)CO)C(=O)c2cc(NC(=O)Cc3ccccc3)ccc2O1 | inactive | inactive | inactive |
| COc1ccc(NC(=O)N(C)C[C@H]2Oc3ccc(NS(C)(=O)=O)cc3CC(=O)N([C@@H](C)CO)C[C@@H]2C)cc1 | inactive | inactive | inactive |
| COc1ccc(C(=O)Nc2ccc3c(c2)C(=O)N(C)[C@@H]2CC[C@H](CC(=O)NCC4CC4)O[C@@H]2CO3)cc1 | inactive | active | inactive |
| C/C=C/c1cccc(-c2nc(C(=O)NCc3ccccc3)cc3c2[C@H](CCO)N([S@@](=O)C(C)(C)C)C3)c1 | inactive | inactive | inactive |
| C[C@@H]1CCCCO[C@@H](CN(C)C(=O)C2CCCCC2)[C@H](C)CN([C@@H](C)CO)C(=O)c2cc(NC(=O)Cc3ccccc3)ccc2O1 | inactive | inactive | inactive |
| C[C@@H]1CN([C@H](C)CO)S(=O)(=O)c2ccc(C#CCC3CCCC3)cc2O[C@H]1CN(C)C(=O)CN(C)C | inactive | inactive | inactive |
| CN1CCN(C(=O)C[C@H]2CC[C@H]3[C@@H](COC[C@H](O)CN3C(=O)C3CCCC3)O2)CC1 | inactive | inactive | inactive |
| CCOC(=O)c1cn(C[C@H](Cc2ccccc2)NC(=O)N[C@H](CO)CCc2oc(C(C)=O)c(C(=O)OC)c2C(=O)OC)nn1 | inactive | inactive | inactive |
| Cc1noc(C)c1NC(=O)N(C)C[C@@H]1Oc2ccc(NS(=O)(=O)c3cccs3)cc2CC(=O)N([C@H](C)CO)C[C@@H]1C | inactive | inactive | inactive |
| Cc1noc(C)c1NC(=O)Nc1cccc2c1O[C@H](CN(C)S(=O)(=O)c1ccccc1)[C@@H](C)CN([C@@H](C)CO)C2=O | inactive | inactive | inactive |
| O=C(C[C@H]1CC[C@@H](NC(=O)CN2CCOCC2)[C@H](CO)O1)NC1CCC1 | inactive | inactive | inactive |
| O=C(C[C@H]1C[C@@H]2c3cc(NC(=O)c4ccc5c(c4)OCO5)ccc3O[C@@H]2[C@@H](CO)O1)NCc1ccc(Oc2ccccc2)cc1 | inactive | active | inactive |
| O=C(C[C@H]1NCCNC1=O)Nc1ccc2c(c1)OCCO2 | inactive | inactive | inactive |
| COc1ccc(cc1)S(=O)(=O)N1C[C@]2(C1)CN([C@H](CO)c1c2c2ccc(cc2n1C)OC)C(=O)c1cccnc1 | inactive | inactive | inactive |
| CC(C)NC(=O)Nc1ccc2c(c1)CC(=O)N([C@@H](C)CO)C[C@@H](C)[C@@H](CN(C)S(=O)(=O)c1ccccc1)O2 | inactive | inactive | inactive |
| Oc1c(Cl)cc(Cl)c(Cl)c1Cc1c(O)c(Cl)cc(Cl)c1Cl | active | active | inactive |
| C[C@@H]1CN([C@H](C)CO)C(=O)Cc2cc(NC(=O)c3ccncc3)ccc2O[C@H]1CN(C)S(=O)(=O)c1ccc(F)cc1 | inactive | inactive | inactive |
| COc1ccc(NC(=O)N(C)C[C@@H]2Oc3c(NC(=O)Nc4ccc(C(F)(F)F)cc4)cccc3C(=O)N([C@@H](C)CO)C[C@H]2C)cc1 | inactive | inactive | inactive |
| C[C@H](CO)N1C[C@H](C)[C@H](CN(C)S(C)(=O)=O)Oc2ccc(NC(=O)CCN3CCOCC3)cc2CC1=O | inactive | inactive | inactive |
| COc1ccc(C#Cc2cnc3c(c2)C(=O)N([C@@H](C)CO)C[C@@H](C)[C@H](CN(C)CC2CCOCC2)O3)cc1 | inactive | inactive | inactive |
| CN(C)S(=O)(=O)N1CCC[C@H](C(N)=O)C1 | inactive | inactive | inactive |
| C[C@H]1CN([C@@H](C)CO)C(=O)c2cc(NC(=O)CCN3CCOCC3)ccc2O[C@H]1CN(C)CC1CC1 | inactive | inactive | inactive |
| Cc1noc(C)c1S(=O)(=O)Nc1ccc2c(c1)C(=O)N([C@@H](C)CO)C[C@@H](C)[C@@H](CN(C)Cc1ccc3c(c1)OCO3)O2 | inactive | inactive | inactive |
| C[C@H](CO)N1C[C@H](C)[C@@H](CN(C)Cc2ccc(-c3ccccc3)cc2)Oc2c(NS(=O)(=O)c3ccc(Cl)cc3)cccc2C1=O | inactive | inactive | inactive |
| C[C@@H]1CCCCO[C@H](CN(C)Cc2ccc3c(c2)OCO3)[C@@H](C)CN([C@@H](C)CO)C(=O)c2cc(NS(=O)(=O)c3ccc(Cl)cc3)ccc2O1 | inactive | inactive | inactive |
